{"source": "the supplement of paper PMC6531468", "note": "This is one part of the list. Read counts after selection give these values, which scatter widely. Scores sum up all selected molecules that hold the word; the word was not tested alone.", "data": [{"system": "IMP3 KH3-4", "sequence (chain, as listed by the source)": "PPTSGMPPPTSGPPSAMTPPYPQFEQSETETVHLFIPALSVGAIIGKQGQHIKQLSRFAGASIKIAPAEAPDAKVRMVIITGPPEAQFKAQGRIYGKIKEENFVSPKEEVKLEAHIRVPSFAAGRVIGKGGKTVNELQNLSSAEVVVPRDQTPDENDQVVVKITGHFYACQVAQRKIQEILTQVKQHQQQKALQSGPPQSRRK", "assay": "6-mer SELEX enrichment z-score vs GST control; IMP3 is the RNA-binding protein IGF2BP3; higher = more enriched by binding", "details": "construct: KH3-4 (377-579); SELEX round: R4", "procedure": "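SELEX-seq with GST-tagged IMP3 KH3-4 (Pro377-Lys579) and an N40 RNA pool, round 4. 6-mer z-score of sequence-tag enrichment normalised to the corresponding GST SELEX round; RNA k-mers written as DNA (T for U).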", "values": [{"sequence": "TGCGGA", "6-mer SELEX enrichment z-score": -0.147}, {"sequence": "ACATTC", "6-mer SELEX enrichment z-score": 1.08}, {"sequence": "AGACCC", "6-mer SELEX enrichment z-score": -2.19}, {"sequence": "GACAGC", "6-mer SELEX enrichment z-score": -0.612}, {"sequence": "AGCTGG", "6-mer SELEX enrichment z-score": -0.097}, {"sequence": "CGAACA", "6-mer SELEX enrichment z-score": -1.06}, {"sequence": "CCAAGA", "6-mer SELEX enrichment z-score": -1.82}, {"sequence": "CCCGCA", "6-mer SELEX enrichment z-score": -1.07}, {"sequence": "GTAACG", "6-mer SELEX enrichment z-score": -0.57}, {"sequence": "ACTTTC", "6-mer SELEX enrichment z-score": 0.565}, {"sequence": "CACGTA", "6-mer SELEX enrichment z-score": -0.447}, {"sequence": "GCGCGC", "6-mer SELEX enrichment z-score": -0.109}, {"sequence": "CGACCT", "6-mer SELEX enrichment z-score": -1.3}, {"sequence": "CGCGCT", "6-mer SELEX enrichment z-score": -0.272}, {"sequence": "GGGGTA", "6-mer SELEX enrichment z-score": 0.384}, {"sequence": "ACGGGG", "6-mer SELEX enrichment z-score": 1.26}, {"sequence": "CCATTC", "6-mer SELEX enrichment z-score": 0.036}, {"sequence": "GCTCTC", "6-mer SELEX enrichment z-score": -0.21}, {"sequence": "CATAGG", "6-mer SELEX enrichment z-score": 0.535}, {"sequence": "CGCAAT", "6-mer SELEX enrichment z-score": 0.234}, {"sequence": "GGACTC", "6-mer SELEX enrichment z-score": -0.698}, {"sequence": "AGGCCT", "6-mer SELEX enrichment z-score": 0.039}, {"sequence": "GAGCTT", "6-mer SELEX enrichment z-score": -0.457}, {"sequence": "AATTTA", "6-mer SELEX enrichment z-score": 2.73}, {"sequence": "GGTGAA", "6-mer SELEX enrichment z-score": 0.376}, {"sequence": "CCGTAA", "6-mer SELEX enrichment z-score": -0.704}, {"sequence": "TGTCGC", "6-mer SELEX enrichment z-score": -0.065}, {"sequence": "GTCGGA", "6-mer SELEX enrichment z-score": 0.918}, {"sequence": "GAGGGC", "6-mer SELEX enrichment z-score": 0.637}, {"sequence": "GCGATA", "6-mer SELEX enrichment z-score": 0.064}, {"sequence": "CTTAGG", "6-mer SELEX enrichment z-score": 0.066}, {"sequence": "GTAACT", "6-mer SELEX enrichment z-score": -0.339}, {"sequence": "ATCTAT", "6-mer SELEX enrichment z-score": 0.86}, {"sequence": "GAAAAG", "6-mer SELEX enrichment z-score": 0.222}, {"sequence": "AGGATG", "6-mer SELEX enrichment z-score": 1.17}, {"sequence": "GCTGCT", "6-mer SELEX enrichment z-score": 0.269}, {"sequence": "CGTATA", "6-mer SELEX enrichment z-score": -0.102}, {"sequence": "AGACAG", "6-mer SELEX enrichment z-score": 0.444}, {"sequence": "CGACAG", "6-mer SELEX enrichment z-score": -0.969}, {"sequence": "TTAGTA", "6-mer SELEX enrichment z-score": 0.361}]}]}
